# Assay results from the supplement of paper PMC8728848.
# The other results are listed elsewhere or left out.
# B1: CFEM-PPl (Pichia pastoris), F2QPV1 (protein)
# chain: AVATPPACLLACAAEVVKESSDCDALNNIQCICENEGSAIHACLESTCPDGLSSTALQSFEDVCESVGTEANLDE
# Assays:
# Assay in all cases: glycan array binding signal (z-score within array); higher = stronger binding
# Conditions in all cases: glycan notation: IUPAC condensed, linker removed
# [1] = target: GlcNAc(b1-3)Gal(b1-4)GlcNAc(b1-3)Gal(b1-4)GlcNAc(b1-3)Gal(b1-4)GlcNAc(b1-3)Gal(b1-4)GlcNAc(b1-2)[GlcNAc(b1-3)Gal(b1-4)GlcNAc(b1-3)Gal(b1-4)GlcNAc(b1-3)Gal(b1-4)GlcNAc(b1-3)Gal(b1-4)GlcNAc(b1-6)]Man(a1-6)[GlcNAc(b1-3)Gal(b1-4)GlcNAc(b1-3)Gal(b1-4)GlcNAc(b1-3)Gal(b1-4)GlcNAc(b1-3)Gal(b1-4)GlcNAc(b1-2)Man(a1-3)]Man(b1-4)GlcNAc(b1-4)[Fuc(a1-6)]GlcNAc
# Outline: (§1)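 The binding signal is a Z-score computed within each array and averaged over linkers. Arrays of the same protein sequence at different concentrations or buffers were also averaged together. Data originate from 3228 arrays in the Consortium for Functional Glycomics database, kept only where the protein sequence was available.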
# [2] = target: GlcNAc(b1-3)Gal(b1-4)GlcNAc(b1-3)Gal(b1-4)GlcNAc(b1-3)GalNAc
# Outline: as §1
# [3] = target: GlcNAc(b1-3)Gal(b1-4)GlcNAc(b1-3)GalNAc
# Outline: as §1
# [4] = target: GlcNAc(b1-3)Gal(b1-4)GlcNAc(b1-3)[GlcNAc(b1-3)Gal(b1-4)GlcNAc(b1-3)]GalNAc
# Outline: as §1
# [5] = target: GlcNAc(b1-3)Gal(b1-4)GlcNAc(b1-6)[Gal(b1-3)]GalNAc
# Outline: as §1
# [6] = target: GlcNAc(b1-3)Gal(b1-4)GlcNAc(b1-6)[GlcNAc(b1-3)Gal(b1-3)]GalNAc
# Outline: as §1
# [7] = target: GlcNAc(b1-3)Gal(b1-4)GlcNAc(b1-6)[GlcNAc(b1-3)]Gal(b1-4)GlcNAc
# Outline: as §1
# GlcNAc(b1-3)GalNAc = target: GlcNAc(b1-3)GalNAc
# Outline: as §1
# GlcNAc(b1-3)Man = target: GlcNAc(b1-3)Man
# Outline: as §1
# [8] = target: GlcNAc(b1-3)[GlcNAc(b1-4)][GlcNAc(b1-6)]GlcNAc
# Outline: as §1
# [9] = target: GlcNAc(b1-3)[GlcNAc(b1-6)]Gal(b1-4)GlcNAc
# Outline: as §1
# [10] = target: GlcNAc(b1-3)[GlcNAc(b1-6)]GalNAc
# Outline: as §1
# [11] = target: GlcNAc(b1-4)Gal(b1-4)GlcNAc
# Outline: as §1
# GlcNAc(b1-4)GlcNAc = target: GlcNAc(b1-4)GlcNAc
# Outline: as §1
# [12] = target: GlcNAc(b1-4)GlcNAc(b1-4)GlcNAc
# Outline: as §1
# [13] = target: GlcNAc(b1-4)GlcNAc(b1-4)GlcNAc(b1-4)GlcNAc(b1-4)GlcNAc
# Outline: as §1
# [14] = target: GlcNAc(b1-4)GlcNAc(b1-4)GlcNAc(b1-4)GlcNAc(b1-4)GlcNAc(b1-4)GlcNAc
# Outline: as §1
# [15] = target: GlcNAc(b1-4)[GlcNAc(b1-6)]GalNAc
# Outline: as §1
# [16] = target: GlcNAc(b1-6)Gal(b1-4)GlcNAc
# Outline: as §1
# GlcNAc(b1-6)GalNAc = target: GlcNAc(b1-6)GalNAc
# Outline: as §1
# [17] = target: GlcNAc6S(b1-3)Gal(b1-4)GlcNAc
# Outline: as §1
# Kdn(a2-3)Gal(b1-3)GalNAc = target: Kdn(a2-3)Gal(b1-3)GalNAc
# Outline: as §1
# Kdn(a2-3)Gal(b1-3)GlcNAc = target: Kdn(a2-3)Gal(b1-3)GlcNAc
# Outline: as §1
# Kdn(a2-3)Gal(b1-4)Glc = target: Kdn(a2-3)Gal(b1-4)Glc
# Outline: as §1
# Kdn(a2-3)Gal(b1-4)GlcNAc = target: Kdn(a2-3)Gal(b1-4)GlcNAc
# Outline: as §1
# [18] = target: Kdn(a2-3)Gal(b1-4)[Fuc(a1-3)]GlcNAc
# Outline: as §1
# Kdn(a2-6)Gal(b1-4)GlcNAc = target: Kdn(a2-6)Gal(b1-4)GlcNAc
# Outline: as §1
# [19] = target: Man(a1-2)Man(a1-2)Man(a1-3)Man
# Outline: as §1
# [20] = target: Man(a1-2)Man(a1-2)Man(a1-6)[Man(a1-3)]Man
# Outline: as §1
# Man(a1-2)Man(a1-3)Man = target: Man(a1-2)Man(a1-3)Man
# Outline: as §1
# [21] = target: Man(a1-2)Man(a1-3)[Man(a1-2)Man(a1-6)]Man
# Outline: as §1
# [22] = target: Man(a1-2)Man(a1-3)[Man(a1-2)Man(a1-6)]Man(a1-6)[Man(a1-2)Man(a1-2)Man(a1-3)]Man
# Outline: as §1
# [23] = target: Man(a1-2)Man(a1-3)[Man(a1-2)Man(a1-6)]Man(a1-6)[Man(a1-2)Man(a1-2)Man(a1-3)]Man(b1-4)GlcNAc(b1-4)GlcNAc
# Outline: as §1
# [24] = target: Man(a1-2)Man(a1-3)[Man(a1-6)]Man(a1-6)[Man(a1-2)Man(a1-3)]Man(b1-4)GlcNAc(b1-4)GlcNAc
# Outline: as §1
# [25] = target: Man(a1-2)Man(a1-6)[Man(a1-3)]Man(a1-6)[Man(a1-2)Man(a1-2)Man(a1-3)]Man
# Outline: as §1
# [26] = target: Man(a1-2)Man(a1-6)[Man(a1-3)]Man(a1-6)[Man(a1-2)Man(a1-2)Man(a1-3)]Man(b1-4)GlcNAc(b1-4)GlcNAc
# Outline: as §1
# Man(a1-3)[Man(a1-6)]Man = target: Man(a1-3)[Man(a1-6)]Man
# Outline: as §1
# [27] = target: Man(a1-3)[Man(a1-6)]Man(a1-6)[Man(a1-2)Man(a1-3)]Man(b1-4)GlcNAc(b1-4)GlcNAc
# Outline: as §1
# [28] = target: Man(a1-3)[Man(a1-6)]Man(a1-6)[Man(a1-3)]Man
# Outline: as §1
# [29] = target: Man(a1-3)[Man(a1-6)]Man(a1-6)[Man(a1-3)]Man(b1-4)GlcNAc(b1-4)GlcNAc
# Outline: as §1
# [30] = target: Man(a1-3)[Man(a1-6)]Man(b1-4)GlcNAc(b1-4)GlcNAc
# Outline: as §1
# [31] = target: Man(a1-3)[Man(a1-6)]Man(b1-4)GlcNAc(b1-4)[Fuc(a1-6)]GlcNAc
# Outline: as §1
# Man(a1-6)Man = target: Man(a1-6)Man
# Outline: as §1
# Man(b1-4)GlcNAc = target: Man(b1-4)GlcNAc
# Outline: as §1
# MurNAc(b1-4)GlcNAc = target: MurNAc(b1-4)GlcNAc
# Outline: as §1
binder,measurement,setting,value
B1,glycan array binding signal (z-score),[1],-0.132
same,glycan array binding signal (z-score),[2],-0.203
same,glycan array binding signal (z-score),[3],-0.329
same,glycan array binding signal (z-score),[4],-0.22
same,glycan array binding signal (z-score),[5],0.274
same,glycan array binding signal (z-score),[6],-0.265
same,glycan array binding signal (z-score),[7],-0.335
same,glycan array binding signal (z-score),GlcNAc(b1-3)GalNAc,-0.314
same,glycan array binding signal (z-score),GlcNAc(b1-3)Man,-0.242
same,glycan array binding signal (z-score),[8],-0.262
same,glycan array binding signal (z-score),[9],-0.018
same,glycan array binding signal (z-score),[10],-0.359
same,glycan array binding signal (z-score),[11],-0.288
same,glycan array binding signal (z-score),GlcNAc(b1-4)GlcNAc,-0.153
same,glycan array binding signal (z-score),[12],-0.291
same,glycan array binding signal (z-score),[13],-0.172
same,glycan array binding signal (z-score),[14],-0.086
same,glycan array binding signal (z-score),[15],-0.176
same,glycan array binding signal (z-score),[16],-0.019
same,glycan array binding signal (z-score),GlcNAc(b1-6)GalNAc,-0.364
same,glycan array binding signal (z-score),[17],0.299
same,glycan array binding signal (z-score),Kdn(a2-3)Gal(b1-3)GalNAc,-0.307
same,glycan array binding signal (z-score),Kdn(a2-3)Gal(b1-3)GlcNAc,-0.02
same,glycan array binding signal (z-score),Kdn(a2-3)Gal(b1-4)Glc,-0.334
same,glycan array binding signal (z-score),Kdn(a2-3)Gal(b1-4)GlcNAc,-0.087
same,glycan array binding signal (z-score),[18],-0.19
same,glycan array binding signal (z-score),Kdn(a2-6)Gal(b1-4)GlcNAc,-0.231
same,glycan array binding signal (z-score),[19],0.013
same,glycan array binding signal (z-score),[20],-0.294
same,glycan array binding signal (z-score),Man(a1-2)Man(a1-3)Man,-0.171
same,glycan array binding signal (z-score),[21],-0.263
same,glycan array binding signal (z-score),[22],-0.144
same,glycan array binding signal (z-score),[23],-0.249
same,glycan array binding signal (z-score),[24],-0.138
same,glycan array binding signal (z-score),[25],-0.274
same,glycan array binding signal (z-score),[26],-0.357
same,glycan array binding signal (z-score),Man(a1-3)[Man(a1-6)]Man,-0.244
same,glycan array binding signal (z-score),[27],-0.336
same,glycan array binding signal (z-score),[28],-0.201
same,glycan array binding signal (z-score),[29],-0.316
same,glycan array binding signal (z-score),[30],-0.296
same,glycan array binding signal (z-score),[31],-0.164
same,glycan array binding signal (z-score),Man(a1-6)Man,-0.322
same,glycan array binding signal (z-score),Man(b1-4)GlcNAc,-0.273
same,glycan array binding signal (z-score),MurNAc(b1-4)GlcNAc,-0.357
